Laboratory results taken from the supplement of paper PMC11876631.
Changes are numbered by the printed parent chain. In names and notes the source's numbering stands. ± gives the standard deviation of the averaged measurements. Laboratory Escherichia coli strains with one amino-acid change in an essential protein, pooled on minimal glucose agar with carbenicillin or gentamicin at twice the control MIC (plus kanamycin and chloramphenicol for the plasmids), 48 h. Fold change of barcode share against drug-free plates; higher = less susceptible. Active = above 20 in both replicates (the paper's putatively resistant). '<' = one read or none on drug, '>' = one read or none on a drug-free plate. Shares are relative, so most strains fall below 1 when a few take over. Listed are strains with at least 15 reads on both drug-free plates, and hits; most hits rest on fewer reference reads. Replicate rank correlation about 0.5. Edits are read from barcodes.

B1: mreC V19A (protein)
chain: MKPIFSRGPSLQIRLILAALVALGIIIADSRLGTFSQIRTYMDTAVSPFYFVSNAPRELLDGVSQTLASRDQLELENRALRQELLLKNSELLMLGQYKQENARLRELLGSPLRQDEQKMVTQVISTVNDPYSDQVVIDKGSVNGVYEGQPVISDKGVVGQVVAVAKLTSRVLLICDATHALPIQVLRNDIRVIAAGNGCTDDLQLEHLPANTDIRVGDVLVTSGLGGRFPEGYPVAVVSSVKLDTQRAYTVIQARPTAGLQRLRYLLLLWGADRNGANPMTPEEVHRVANERLMQMMPQVLPSPDAMGPKLPEPATGIAQPTPQQPATGNAATAPAAPTQPAANRSPQRATPPQSGAQPPARAPGGQ
B2: mreC V19W (protein)
chain: B1 chain with A19W
B3: mreC V19Q (protein)
chain: B1 chain with A19Q
B4: mreC V19P (protein)
chain: B1 chain with A19P
B5: mreC I26A (protein)
chain: B1 chain with A19V, I26A
B6: mreC I26W (protein)
chain: B1 chain with A19V, I26W
B7: mreC I26Q (protein)
chain: B1 chain with A19V, I26Q
B8: mreC I26D (protein)
chain: B1 chain with A19V, I26D
B9: mreC I27A (protein)
chain: B1 chain with A19V, I27A
B10: mreC I27W (protein)
chain: B1 chain with A19V, I27W
B11: mreC I27Q (protein)
chain: B1 chain with A19V, I27Q
B12: mreC I27D (protein)
chain: B1 chain with A19V, I27D
B13: mreC I27P (protein)
chain: B1 chain with A19V, I27P

Biological target: Escherichia coli (laboratory strain)
Assay: barcode share on antibiotic plates over drug-free plates; higher = less susceptible
Conditions: antibiotic: carbenicillin; 2× MIC (3.1 µg/mL)
Description: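 A pool of E. coli strains, each edited to carry one amino-acid change in an essential protein, was grown for 48 h on minimal glucose agar with or without antibiotic; strain barcodes were sequenced; mean of two replicates.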

| Protein | fold change of barcode share |
| --- | --- |
| B1 | 0.346 ± 0.085 |
| B2 | 0.306 ± 0.16 |
| B3 | 0.51 ± 0.078 |
| B4 | 0.857 ± 0.52 |
| B5 | 0.14 ± 0.032 |
| B6 | 0.286 ± 0.21 |
| B7 | 0.473 ± 0.099 |
| B8 | 1.02 ± 0.098 |
| B9 | 1.25 ± 0.37 |
| B10 | 0.409 ± 0.12 |
| B11 | 1.09 ± 1.1 |
| B12 | 1.13 ± 1.1 |
| B13 | 0.289 ± 0.15 |

Same assay, conditions: antibiotic: gentamicin; 2× MIC (MIC 0.45 µg/mL)

| Protein | fold change of barcode share |
| --- | --- |
| B1 | 0.00506 ± 0.0019 |
| B2 | < 0.00649 |
| B3 | < 0.00458 |
| B4 | 0.00552 ± 0.0032 |
| B5 | < 0.00752 |
| B6 | < 0.00801 |
| B7 | 0.0134 ± 0.007 |
| B8 | < 0.00981 |
| B9 | < 0.00565 |
| B10 | < 0.00766 |
| B11 | 0.00981 ± 0.0049 |
| B12 | < 0.00812 |
| B13 | < 0.00683 |
